What was measured:
Assay type in all cases: cell-based
[1] = test system: RAJI CD19 KO A7 (CD19-/CD20+) cells
[2] = test system: DAUDI (CD20+) cells
[3] = test system: RS411 cells

Molecule | GFP induction (JNG-GFP induction assay), RAJI CD19 KO A7 [1] | GFP induction (JNG-GFP induction assay), DAUDI [2] | GFP induction (JNG-GFP induction assay), RS;411 [3]
4088 (protein, Synthetic Polynucloetide) MALPVTALLLPLALLLHAARPDIQMTQSPSSLSASVGDRVTITCKASDHINNWLAWYQQKPGQAPKLLIYGATTLETGVPSRFSGSGSGTDYTLTISSLQPEDFATYYCQQSWNTPWTFGQGTKLEIKRLEIQNPDPAVYQLRDSKSSDKSVCLFTDFDSQTNVSQSKDSDVYITDKCVLDMRSMDFKSNSAVAWSNKSDFACANAFNNSIIPEDTFFPSSDVPCDVKLVEKSFETDTNLNFQNLSVIGFRILLLKVAGFNLLMTLRLWSSRAKRSGSGVKQTLNFDLLKLAGDVESNPGPTSMDWIWRILFLVGAATGAHSGPQVQLQESGGGLAQAGGSLRLSCAASGRTFSMGWFRQAPGKEREFVAAITYSGGSPYYASSVRGRFTISRDNAKNTVYLQMNSLKPEDTAVYYCAANPTYGSDWNAENWGQGTQVTVSSGSGGGGSGGGGSGGGGSFEQVQLQQPGAELVKPGASVKMSCKASGYAFSSYWINWMKQKPGQGLEWIGQIYPGDGDTNYNGKFKGRATLTADTSSSTAYMQLSSLTSEDSAVYFCARSITTVVGCAMDYWGQGTSVTVSSTREDLKNVFPPEVAVFEPSKAEIAHTQKATLVCLATGFYPDHVELSWWVNGKEVHSGVCTDPQPLKEQPALNDSRYCLSSRLRVSATFWQNPRNHFRCQVQFYGLSENDEWTQDRAKPVTQIVSAEAWGRADCGITSASYHQGVLSATILYEILLGKATLYAVLVSALVLMAMVKRKDSRGRAKRSGSGATNFSLLKQAGDVEENPGPSRGHMTEYKPTVRLATRDDVPRAVRTLAAAFADYPATRHTVDPDRHIERVTELQELFLTRVGLDIGKVWVADDGAAVAVWTTPESVEAGAVFAEIGPRMAELSGSRLAAQQQMEGLLAPHRPKEPAWFLATVGVSPDHQGKGLGSAVVLPGVEAAERAGVPAFLETSAPRNLPFYERLGFTVTADVEVPEGPRTWCMTRKPGA | positive | – | –
4090 (protein, Synthetic Polynucloetide) MALPVTALLLPLALLLHAARPDIQMTQSPSSLSASVGDRVTITCKASDHINNWLAWYQQKPGQAPKLLIYGATTLETGVPSRFSGSGSGTDYTLTISSLQPEDFATYYCQQSWNTPWTFGQGTKLEIKRLEDLKNVFPPEVAVFEPSEAEISHTQKATLVCLATGFYPDHVELSWWVNGKEVHSGVCTDPQPLKEQPALNDSRYCLSSRLRVSATFWQNPRNHFRCQVQFYGLSENDEWTQDRAKPVTQIVSAEAWGRADCGFTSESYQQGVLSATILYEILLGKATLYAVLVSALVLMAMVKRKDSRGRAKRSGSGATNFSLLKQAGDVEENPGPTSMDWIWRILFLVGAATGAHSGPQVQLQESGGGLAQAGGSLRLSCAASGRTFSMGWFRQAPGKEREFVAAITYSGGSPYYASSVRGRFTISRDNAKNTVYLQMNSLKPEDTAVYYCAANPTYGSDWNAENWGQGTQVTVSSGSGGGGSGGGGSGGGGSFEQVQLQQPGAELVKPGASVKMSCKASGYAFSSYWINWMKQKPGQGLEWIGQIYPGDGDTNYNGKFKGRATLTADTSSSTAYMQLSSLTSEDSAVYFCARSITTVVGCAMDYWGQGTSVTVSSTRIQNPDPAVYQLRDSKSSDKSVCLFTDFDSQTNVSQSKDSDVYITDKCVLDMRSMDFKSNSAVAWSNKSDFACANAFNNSIIPEDTFFPSPESSCDVKLVEKSFETDTNLNFQNLSVIGFRILLLKVAGFNLLMTLRLWSSRAKRSGSGVKQTLNFDLLKLAGDVESNPGPSRGHMTEYKPTVRLATRDDVPRAVRTLAAAFADYPATRHTVDPDRHIERVTELQELFLTRVGLDIGKVWVADDGAAVAVWTTPESVEAGAVFAEIGPRMAELSGSRLAAQQQMEGLLAPHRPKEPAWFLATVGVSPDHQGKGLGSAVVLPGVEAAERAGVPAFLETSAPRNLPFYERLGFTVTADVEVPEGPRTWCMTRKPGA | positive | – | –
4089 (protein, Synthetic Polynucloetide) MALPVTALLLPLALLLHAARPDIQMTQSPSSLSASVGDRVTITCKASDHINNWLAWYQQKPGQAPKLLIYGATTLETGVPSRFSGSGSGTDYTLTISSLQPEDFATYYCQQSWNTPWTFGQGTKLEIKRLEDLKNVFPPEVAVFEPSKAEIAHTQKATLVCLATGFYPDHVELSWWVNGKEVHSGVCTDPQPLKEQPALNDSRYCLSSRLRVSATFWQNPRNHFRCQVQFYGLSENDEWTQDRAKPVTQIVSAEAWGRADCGITSASYHQGVLSATILYEILLGKATLYAVLVSALVLMAMVKRKDSRGRAKRSGSGATNFSLLKQAGDVEENPGPTSMDWIWRILFLVGAATGAHSGPQVQLQESGGGLAQAGGSLRLSCAASGRTFSMGWFRQAPGKEREFVAAITYSGGSPYYASSVRGRFTISRDNAKNTVYLQMNSLKPEDTAVYYCAANPTYGSDWNAENWGQGTQVTVSSGSGGGGSGGGGSGGGGSFEQVQLQQPGAELVKPGASVKMSCKASGYAFSSYWINWMKQKPGQGLEWIGQIYPGDGDTNYNGKFKGRATLTADTSSSTAYMQLSSLTSEDSAVYFCARSITTVVGCAMDYWGQGTSVTVSSTRIQNPDPAVYQLRDSKSSDKSVCLFTDFDSQTNVSQSKDSDVYITDKCVLDMRSMDFKSNSAVAWSNKSDFACANAFNNSIIPEDTFFPSSDVPCDVKLVEKSFETDTNLNFQNLSVIGFRILLLKVAGFNLLMTLRLWSSRAKRSGSGVKQTLNFDLLKLAGDVESNPGPSRGHMTEYKPTVRLATRDDVPRAVRTLAAAFADYPATRHTVDPDRHIERVTELQELFLTRVGLDIGKVWVADDGAAVAVWTTPESVEAGAVFAEIGPRMAELSGSRLAAQQQMEGLLAPHRPKEPAWFLATVGVSPDHQGKGLGSAVVLPGVEAAERAGVPAFLETSAPRNLPFYERLGFTVTADVEVPEGPRTWCMTRKPGA | positive | – | –
1330 (protein, Synthetic Polynucloetide) MALPVTALLLPLALLLHAARPEVQLVESGGGLVQPGGSLRLSCTFSGGTFSSYTMGWFRQAPGKEREFVAEVRWGGVTTYSNSLKDRFSISEDSVKNAVYLQMNSLKPEDTAVYYCAAVRQMYMTVVPDYWGQGTLVTVSSSGGGGSDIQMTQSPSSLSASVGDRVTITCKASDHINNWLAWYQQKPGKAPKLLIYGATTLETGVPSRFSGSGSGTDFTLTISSLQPEDFATYYCQQSWNTPWTFGQGTKVEIKRLEDLKNVFPPEVAVFEPSEAEISHTQKATLVCLATGFYPDHVELSWWVNGKEVHSGVCTDPQPLKEQPALNDSRYCLSSRLRVSATFWQNPRNHFRCQVQFYGLSENDEWTQDRAKPVTQIVSAEAWGRADCGFTSESYQQGVLSATILYEILLGKATLYAVLVSALVLMAMVKRKDSRGRAKRSGSGATNFSLLKQAGDVEENPGPTSMDWIWRILFLVGAATGAHSFEEVQLVESGGGLVQPGGSLRLSCAASGYAFSSYWVNWVRQAPGKGLEWVAQIYPGDGDTNYNGKFKGRFTISRDNSKNTLYLQMNSLRAEDTAVYYCARSITTVVGCAMDYWGQGTLVTVSSTRIQNPDPAVYQLRDSKSSDKSVCLFTDFDSQTNVSQSKDSDVYITDKCVLDMRSMDFKSNSAVAWSNKSDFACANAFNNSIIPEDTFFPSPESSCDVKLVEKSFETDTNLNFQNLSVIGFRILLLKVAGFNLLMTLRLWSSRAKRSGSGVKQTLNFDLLKLAGDVESNPGPSRGHMTEYKPTVRLATRDDVPRAVRTLAAAFADYPATRHTVDPDRHIERVTELQELFLTRVGLDIGKVWVADDGAAVAVWTTPESVEAGAVFAEIGPRMAELSGSRLAAQQQMEGLLAPHRPKEPAWFLATVGVSPDHQGKGLGSAVVLPGVEAAERAGVPAFLETSAPRNLPFYERLGFTVTADVEVPEGPRTWCMTRKPGA | able to induce T cell signaling and GFP expression | able to induce T cell signaling and GFP expression | able to induce T cell signaling and GFP expression

Source: US20230212319A1, “NOVEL ANTIGEN BINDING DOMAINS AND SYNTHETIC ANTIGEN RECEPTORS INCORPORATING THE SAME” (University of Southern California, priority 2020, published 2023)
